The values that follow come from the supplement of paper PMC10369915.

B1: KHDRBS3_Y304_YF (peptide)
chain: ADFFDYGHGLS
B2: KIT_Y553 (peptide)
chain: LQKPMYEVQWK
B3: KDM4B_Y34_N29T_YF (peptide)
chain: TKFVAYIESQG
B4: KDM4C_Y201_E206D (peptide)
chain: LYSINYLHFGD
B5: KIAA1109_Y4272 (peptide)
chain: FPRAWYRRSIA
B6: KIR3DL2_Y253_YF (peptide)
chain: SSFDIYHLSRE
B7: KIR3DS1_Y221 (peptide)
chain: VVTGLYEKPSL
B8: KIR3DL2_Y253 (peptide)
chain: SSYDIYHLSRE
B9: KCNT1_Y740_I741M (peptide)
chain: PPNSPYMGSSP
B10: KLB_Y906_YF (peptide)
chain: RLRKFYLGKFL
B11: KIAA1614_Y1083 (peptide)
chain: NRSSLYLVAGP
B12: KDR_Y357_YF (peptide)
chain: AKFLGYPPPEI
B13: KLHL3_Y577 (peptide)
chain: STGRSYAGVAV
B14: KIT_Y823_D820G (peptide)
chain: KNGSNYVVKGN
B15: KIRREL3_Y332 (peptide)
chain: RTVDVYFGPRM
B16: KHDRBS3_Y304 (peptide)
chain: ADYYDYGHGLS
B17: KIT_Y823 (peptide)
chain: KNDSNYVVKGN
B18: KIAA1210_Y564_G565D (peptide)
chain: QSSEGYDLGDR

Some of the results follow. Cut-off read from the data, not from the text of the source: active = 3.2 or more and inactive = the rest. Most of these values are background signal.
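Note: displayed peptides selected on beads carrying the immobilized SH2 domain, with library peptides lacking any tyrosine serving as negative controls.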

One assay addresses SHP2 C-SH2 domain E139D. As to the kind of experiment: enrichment score (SH2-bound / input frequency) (ratio); bacterial display of known human phosphotyrosine sites (pTyr-Var adds point mutants) read by sequencing; higher = stronger binding; tyrosines were phosphorylated by kinases first. To be noted: peptide library: pTyr-Var.
Take B1: the enrichment score is inactive: 0.847.
Same read-out and setting: with B2 the figure was inactive: 0.877; with B3, inactive: 1.47; with B4, active: 3.94.
Still for that read-out and setting: for B5 the value was inactive: 0.424; for B6, inactive: 1.34; for B7, inactive: 1.08.
For the molecule B8, the enrichment score is inactive: 0.624.
B9: the enrichment score is inactive: 0.423.
As to B10, the enrichment score is inactive: 0.217.
On the same count and under the same terms, for B11 the value was inactive: 1.13; for B12, inactive: 1.34; for B13, inactive: 0.602.
For B14, the enrichment score was inactive: 0.396.
As to B15, the enrichment score was inactive: 0.535.
On the same count and under the same terms, for B16 the value was inactive: 0.969.
The same measure, in the same setting: for B17 the value was inactive: 0.532.
Take B18: the enrichment score was inactive: 0.597.

In a further assay the target is SHP2 C-SH2 domain wild-type. Described as above. To be noted: peptide library: pTyr-Var.
With B1, the enrichment score was inactive: 0.879.
The same measure, in the same setting: for B2 the value was inactive: 0.801; for B3, inactive: 1.19; for B4, active: 4.52.
The same measure, in the same setting: for B5 the value was inactive: 0.222.
Same read-out and setting: with B6 the figure was inactive: 0.759; with B7, inactive: 0.579.
As for B8, the enrichment score is inactive: 0.807.
Still for that read-out and setting: for B9 the value was inactive: 0.554; for B10, inactive: 0.238; for B11, inactive: 0.956.
The same measure, in the same setting: for B12 the value was inactive: 1.17.
Consider B13, for which the enrichment score is inactive: 0.697.
Still for that read-out and setting: with B14 the figure was inactive: 0.603; with B15, inactive: 0.339; with B16, inactive: 0.642.
The same measure, in the same setting: for B17 the value was inactive: 0.649; for B18, inactive: 0.578.

In a further assay the target is SHP2 N-SH2 domain L43F. The assay is described as above. To be noted: peptide library: pTyr-Var.
Take B1: the enrichment score is inactive: 0.985.
On to B2, for which the enrichment score was inactive: 0.978.
With B3, the enrichment score was inactive: 0.977.
Same read-out and setting: for B4 the value was active: 4.94.
Take B5: the enrichment score is inactive: 0.288.
Same read-out and setting: for B6 the value was inactive: 0.941.
Still for that read-out and setting: with B7 the figure was inactive: 1.05; with B8, inactive: 0.834; with B9, inactive: 0.525.
Same read-out and setting: with B10 the figure was inactive: 0.468.
As for B11, the enrichment score is inactive: 0.947.
Still for that read-out and setting: with B12 the figure was inactive: 1.45.
The same measure, in the same setting: for B13 the value was inactive: 0.662.
For the molecule B14, the enrichment score is inactive: 0.566.
With B15, the enrichment score was inactive: 0.448.
For B16, the enrichment score is inactive: 0.949.
As to B17, the enrichment score was inactive: 0.604.
Consider B18, for which the enrichment score is inactive: 0.706.

The next assay concerns the target SHP2 N-SH2 domain T42A. Described as above. To be noted: peptide library: pTyr-Var.
B1: the enrichment score was inactive: 0.756.
For the molecule B2, the enrichment score is inactive: 0.735.
On the same count and under the same terms, with B3 the figure was inactive: 1.21; with B4, active: 6.72; with B5, inactive: 0.204.
On the same count and under the same terms, with B6 the figure was inactive: 0.931.
Turning to B7, the enrichment score was inactive: 0.849.
Still for that read-out and setting: with B8 the figure was inactive: 0.71.
The same measure, in the same setting: with B9 the figure was inactive: 0.715; with B10, inactive: 0.293.
On to B11, for which the enrichment score is inactive: 2.31.
Same read-out and setting: with B12 the figure was inactive: 1.37; with B13, inactive: 0.624.
On the same count and under the same terms, with B14 the figure was inactive: 0.428; with B15, inactive: 0.6.
Still for that read-out and setting: for B16 the value was inactive: 0.699; for B17, inactive: 0.401; for B18, inactive: 0.557.

A further assay has as its target SHP2 N-SH2 domain T52S. Described as above. The conditions noted are these: peptide library: pTyr-Var.
B1: the enrichment score is inactive: 0.843.
As to B2, the enrichment score was inactive: 0.784.
Still for that read-out and setting: for B3 the value was inactive: 1.39.
The same measure, in the same setting: with B4 the figure was active: 4.4.
Same read-out and setting: for B5 the value was inactive: 0.164; for B6, inactive: 1.12.
For the molecule B7, the enrichment score is inactive: 0.792.
Still for that read-out and setting: for B8 the value was inactive: 0.797; for B9, inactive: 0.633; for B10, inactive: 0.238.
Still for that read-out and setting: with B11 the figure was inactive: 0.852; with B12, inactive: 1.35; with B13, inactive: 0.704.
For B14, the enrichment score was inactive: 0.572.
For B15, the enrichment score is inactive: 0.941.
The same measure, in the same setting: for B16 the value was inactive: 0.912.
On to B17, for which the enrichment score was inactive: 0.425.
The same measure, in the same setting: with B18 the figure was inactive: 0.563.

Another assay deals with SHP2 N-SH2 domain wild-type. The description is as above. The conditions noted are these: peptide library: pTyr-Var.
Take B1: the enrichment score is inactive: 1.2.
Same read-out and setting: for B2 the value was inactive: 1.05.
As for B3, the enrichment score is inactive: 1.55.
Turning to B4, the enrichment score was active: 3.52.
Still for that read-out and setting: for B5 the value was inactive: 0.242; for B6, inactive: 0.968.
The same measure, in the same setting: for B7 the value was inactive: 0.844; for B8, inactive: 0.539.
Same read-out and setting: with B9 the figure was inactive: 0.345; with B10, inactive: 0.284.
As to B11, the enrichment score is inactive: 1.18.
Still for that read-out and setting: for B12 the value was inactive: 1.33.
On the same count and under the same terms, for B13 the value was inactive: 0.765; for B14, inactive: 0.497; for B15, inactive: 0.53.
Same read-out and setting: with B16 the figure was inactive: 0.866; with B17, inactive: 0.619; with B18, inactive: 0.607.
